The target of one experiment is T1, GST-FOXQ1 (human) (UniProt Q9C009).
T1 sequence: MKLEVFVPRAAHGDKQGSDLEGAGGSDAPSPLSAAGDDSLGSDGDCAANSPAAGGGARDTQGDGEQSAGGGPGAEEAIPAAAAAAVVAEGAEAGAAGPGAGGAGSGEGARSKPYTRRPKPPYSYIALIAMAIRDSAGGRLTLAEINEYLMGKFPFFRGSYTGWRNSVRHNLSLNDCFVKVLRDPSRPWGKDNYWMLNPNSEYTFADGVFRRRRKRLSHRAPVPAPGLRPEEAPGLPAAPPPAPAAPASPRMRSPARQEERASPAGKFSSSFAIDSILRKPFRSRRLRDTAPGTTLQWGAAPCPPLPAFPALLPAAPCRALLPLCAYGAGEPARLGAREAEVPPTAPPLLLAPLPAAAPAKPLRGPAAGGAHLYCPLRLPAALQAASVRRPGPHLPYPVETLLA
The experiment in a line: pull-down; GST-FOXQ1 or GST alone on glutathione-agarose beads, incubated with 100 μg of one purified MLL core complex protein in BC100 with 0.1% BSA overnight at 4 °C; washed with BC100 with 1% Triton-X; western blot; both purified.

Protein sequences, listed by entry. Tags and fused reporters are not part of them. Lines headed by an entry give the natural chain unless they say otherwise; changes in a name come on top.
UniProt Q15291: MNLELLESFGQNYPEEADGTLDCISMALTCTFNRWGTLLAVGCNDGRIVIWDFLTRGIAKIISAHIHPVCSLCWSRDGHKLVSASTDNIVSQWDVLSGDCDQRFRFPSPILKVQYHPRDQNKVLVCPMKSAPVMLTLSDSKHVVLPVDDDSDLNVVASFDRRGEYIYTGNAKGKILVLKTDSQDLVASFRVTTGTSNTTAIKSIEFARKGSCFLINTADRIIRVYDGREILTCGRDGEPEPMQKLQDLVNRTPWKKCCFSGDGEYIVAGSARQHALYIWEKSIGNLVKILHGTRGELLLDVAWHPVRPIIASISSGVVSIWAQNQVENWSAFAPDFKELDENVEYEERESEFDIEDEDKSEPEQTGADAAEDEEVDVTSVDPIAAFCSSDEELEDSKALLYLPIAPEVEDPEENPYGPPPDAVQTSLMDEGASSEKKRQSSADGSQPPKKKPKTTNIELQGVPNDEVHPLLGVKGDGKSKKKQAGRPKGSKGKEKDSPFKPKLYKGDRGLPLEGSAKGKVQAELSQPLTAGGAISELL
UniProt Q9UBL3: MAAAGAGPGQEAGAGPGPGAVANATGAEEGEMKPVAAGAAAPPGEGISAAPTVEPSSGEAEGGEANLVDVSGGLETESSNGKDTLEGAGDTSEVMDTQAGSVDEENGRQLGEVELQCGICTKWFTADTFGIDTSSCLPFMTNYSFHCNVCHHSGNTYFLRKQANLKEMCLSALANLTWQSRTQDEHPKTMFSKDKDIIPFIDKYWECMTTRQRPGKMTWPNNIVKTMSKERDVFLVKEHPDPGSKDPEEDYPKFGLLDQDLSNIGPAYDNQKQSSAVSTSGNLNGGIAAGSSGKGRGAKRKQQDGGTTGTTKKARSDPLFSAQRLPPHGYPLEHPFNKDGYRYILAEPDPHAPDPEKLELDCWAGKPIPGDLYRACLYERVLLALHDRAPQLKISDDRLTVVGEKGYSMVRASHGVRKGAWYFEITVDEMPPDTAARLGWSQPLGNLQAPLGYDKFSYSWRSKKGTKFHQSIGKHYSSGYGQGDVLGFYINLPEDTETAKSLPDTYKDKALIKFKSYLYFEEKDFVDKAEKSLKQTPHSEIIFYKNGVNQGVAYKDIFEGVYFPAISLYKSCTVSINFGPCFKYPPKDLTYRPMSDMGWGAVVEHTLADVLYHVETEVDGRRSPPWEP

The target in experiment [1] is T2, FOXQ1 A126S with C-terminal V5 tag (human) (UniProt Q9C009).
T2 sequence: T1 sequence with A126S
The experiment in a line: co-IP; WT and point-mutant FOXQ1-V5 transfected into HEK293 cells; anti-V5 IP; blot for RbBP5.

The target in experiment [2] is T3, FOXQ1 A136P with C-terminal V5 tag (human) (UniProt Q9C009).
T3 sequence: T1 sequence with A136P
The experiment is described as above.

Experiment [3] has as its target T4, FOXQ1 G137E with C-terminal V5 tag (human) (UniProt Q9C009).
T4 sequence: T1 sequence with G137E
The description is as above.

Experiment [4] deals with T5, FOXQ1 G138E with C-terminal V5 tag (human) (UniProt Q9C009).
T5 sequence: T1 sequence with G138E
The description is as above.

Experiment [5] has as its target T6, FOXQ1 wild type with C-terminal V5-epitope tag (human) (UniProt Q9C009).
T6 sequence: T1 sequence
The description is as above.

Experiment [6] has as its target T7, FLAG-FOXQ1 (full-length) (human) (UniProt Q9C009).
T7 sequence: T1 sequence
The experiment in a line: co-IP; FLAG-tagged FOXQ1 full-length or fragments transfected into HEK293 cells; IP with anti-FLAG resin; blot for endogenous RbBP5.

The target in experiment [7] is T8, FLAG-FOXQ1 C-terminal fragment (204-403) (human) (UniProt Q9C009).
T8 sequence: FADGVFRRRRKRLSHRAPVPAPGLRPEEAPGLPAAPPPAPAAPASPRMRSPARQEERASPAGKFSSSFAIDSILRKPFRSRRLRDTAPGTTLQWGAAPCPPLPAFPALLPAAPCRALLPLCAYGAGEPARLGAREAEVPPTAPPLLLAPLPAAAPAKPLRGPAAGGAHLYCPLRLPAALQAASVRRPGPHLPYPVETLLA
Described as above.

The target in experiment [8] is T9, FLAG-FOXQ1 C-terminal residues 142-403 (human) (UniProt Q9C009).
T9 sequence: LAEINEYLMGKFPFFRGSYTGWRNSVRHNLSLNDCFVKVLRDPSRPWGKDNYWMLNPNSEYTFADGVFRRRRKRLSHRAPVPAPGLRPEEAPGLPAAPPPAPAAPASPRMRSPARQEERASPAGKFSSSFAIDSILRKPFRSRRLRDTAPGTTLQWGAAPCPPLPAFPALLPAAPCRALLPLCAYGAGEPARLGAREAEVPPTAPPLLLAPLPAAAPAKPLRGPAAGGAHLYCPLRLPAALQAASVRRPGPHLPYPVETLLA
The description is as above.

Experiment [9] has as its target T10, FLAG-FOXQ1 Forkhead box fragment (105-227) (human) (UniProt Q9C009).
T10 sequence: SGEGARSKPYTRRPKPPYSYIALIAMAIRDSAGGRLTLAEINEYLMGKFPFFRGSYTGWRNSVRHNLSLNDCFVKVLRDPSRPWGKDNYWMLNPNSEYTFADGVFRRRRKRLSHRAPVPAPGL
The description is as above.

Experiment [10] has as its target T11, FLAG-FOXQ1 N-terminal 75-142 (human) (UniProt Q9C009).
T11 sequence: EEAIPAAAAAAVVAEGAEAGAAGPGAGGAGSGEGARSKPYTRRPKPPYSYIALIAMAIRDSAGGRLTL
The experiment is described as above.

The target in experiment [11] is T12, FLAG-FOXQ1 N-terminal fragment (1-142) (human) (UniProt Q9C009).
T12 sequence: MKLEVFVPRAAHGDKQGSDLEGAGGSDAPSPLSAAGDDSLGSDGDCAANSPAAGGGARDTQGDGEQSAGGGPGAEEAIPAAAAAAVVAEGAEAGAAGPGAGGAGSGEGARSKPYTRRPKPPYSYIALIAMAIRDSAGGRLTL
The experiment is described as above.

Experiment [12] has as its target T6, FOXQ1 wild type with C-terminal V5-epitope tag (human). Nature of the experiment: co-IP; anti-V5 IP of FOXQ1-V5 from stable HMLE/FOXQ1 lysate; blots for endogenous MLL core complex proteins; Co-IP buffer 20 mM Tris-HCl, 140 mM NaCl, 10% glycerol, 1% NP-40, 2 mM EDTA, 4 °C overnight.
The target in experiment [13] is T7, FLAG-FOXQ1 (full-length) (human). The experiment in a line: co-IP; RbBP5 deletion constructs co-expressed individually with FLAG-FOXQ1 in HEK293 cells (Supplementary Fig. 4e, f); which partner was precipitated is not told.

Positions count from the first letter of the chain named. No constants are given. Whether binding was seen depends on the method and setting. For part of these data: Binding seen in cells or lysates may run through a third protein. Some results given as binding are weak or reduced against the parent protein; the word gives no strength. Sequences can lack the tags named with a protein.

Take “recombinant RbBP5 (from UniProt Q15291 1-538)”: the binding result in the experiment with GST-FOXQ1 (human) was “binds”.
With “endogenous RbBP5 (from UniProt Q15291 1-538)”, the binding entry in [1], in experiment [2], in experiment [3], in [4], in [5] and in experiment [6] was “binds” throughout. The binding entry was “no binding” in [7]; “no binding” in [8]; “binds” in experiment [9]; “binds” in experiment [10]; “binds” in experiment [11]; “binds” in experiment [12].
For “RbBP5 C-terminal region (330-538), MYC-tagged (from UniProt Q15291 330-538) (domain or fragment)”, in experiment [13], the binding entry is “binds”.
As for “recombinant ASH2L (from UniProt Q9UBL3 1-628)”, the binding result in the experiment with GST-FOXQ1 (human) is on record as “no binding (tested: 100 μg of purified protein)”.

Source of the values: article PMC9626503.
